Sequences and labels used below:
B1: CPEB3 Ribozyme (parent)
chain: UAACAGGGGGCCACAGCAGAAGCGUUCACGUCGCAGCCCCUGUCAGAUUCUGGUGAAUCUGCGAAUUCUGCUGUAUAUCUC

Read counts are not given, so values of variants with three or more changes are uncertain.

In this data set the parent is B1. The experiment in a line: self-cleavage, relative activity (ratio to wild type); higher = more cleavage; in vitro, sequencing. In outline: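 Libraries of CPEB3 self-cleaving ribozyme mutants came from rounds of error-prone PCR and carried barcodes, which DNA sequencing matched to variants. In vitro transcription used T7 RNA polymerase at 37°C for 5 hours, with a further 15 min in DNase I before EDTA stopped the reaction; the ribozymes cleaved during both steps. The RNA was reverse transcribed with template switching and sequenced on Illumina. Relative activity is the cleaved/total read fraction of a variant divided by that of the unmutated ribozyme, averaged over three batches with at least 5 reads.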
Consider G8A A13C A15C U51C U72C, for which the self-cleavage was found to be 0.23.
Take G7U G24A U80A: the self-cleavage came out at 0.04.
For G7U U26A U49C U58C the value was 0.14.
With G8A A18C C59A the figure was 0.05.
With G7U U25A U26C A77G U78C the figure was 0.14; with G8A C11A A15G, 0.04.
Turning to G7U A35U U49C, the self-cleavage was 0.33.
For G7U C11A U66A, the self-cleavage is 0.08.
For G8A U31A U54C A56G C62U U69C U72C the value was 0.03; for G7U U41C U76C C81U, 0.06.
For G7C U26C U54C the value was 0.28; for G8A A28G G33U C40A U67C, 0.06.
For G7U A15G A45C U51C G52C A56G U60A the value was 0.08; for G7U A21G A35G A45G U60C A65G U74C, 0.04.
With G8A A13G G52U U67A U76C U78C, the self-cleavage amounted to 0.03.
With G8A C11G A13G A28U C29U U41A U80A the figure was 0.37.
For G8A U26A U49C A64U U66C the value was 0.03; for G8A A28G G33U, 0.15; for G7U U41C U51C U76C, 0.04.
For G7C A28G C34U U41C U54C U76C the value was 0.1; for G7U U51C U80C, 0.19.
With G8A C11A A20U U72A, the self-cleavage came out at 0.05.
For G7U U72A U80A the value was 0.22; for G7C U51C A65U U78C U80C, 0.04; for G8A C40U U72C, 0.25.
With G7U C34G U58C A65U the figure was 0.06.
For G8A U31C U48A A65G the value was 0.05; for G8A A45U A57G U74C, 0.07; for G7U U48C U49C U60A U78C, 0.13.
In the case of G8A A13U A20C U25C U41C, the self-cleavage turned out to be 0.21.
G7C A35C U54C U66C U72A: the self-cleavage is 0.09.
Consider G8A A13U C40U A77G, for which the self-cleavage came out at 0.07.
With G8A U25C U78A the figure was 0.51.
For G7U G22C U26A U41A A57G the value was 0.13; for G7U A28G G53C U78C, 0.13.
For G7U A15G U25C A57G the value was 0.69.
Consider G7C A35C U69C, for which the self-cleavage came to 0.22.
With G8A A18G A21G C40U U41A G63A U74C the figure was 0.07; with G8A G53C A57G G63U, 0.06.
For G7C U51A A64G U66C U72C the value was 0.18.
For G8A G36A A47G U72A the value was 0.05; for G8A G19A A35U C37U U51A, 0.18.
As for G8A C23A A57G U72C, the self-cleavage came to 0.11.
For G8A A15U A21G U43C U49C A75G the value was 0.17; for G7U U25C U26G A35G U60A, 0.27.
For G8A A57G U66C the value was 0.34.
For G7U U25C A28U U78A the value was 0.04; for G8A U25C A35G C50U U80C, 0.07; for G8A U26C U74A, 0.42.
G7U A15G A18G U25A C79A U80C: the self-cleavage was found to be 0.05.
For G7C C23U U51A A56G the value was 0.09; for G8A A21G U51C, 0.17.
For G8A G24A G30A U51A the value was 0.16; for G7U C23U U25A U72A, 0.07; for G7U C17U U67A, 0.21.
For G8A A13U A21G A47G A64U A65G U76C the value was 0.03; for G7U C12A A20G A56G U76C U78C, 0.17; for G8A C12U U43C U76A, 0.05.
For the variant G8A A65G U72A, the self-cleavage was determined as 0.34.
With G8A A65G U72C the figure was 0.06; with G7C G10A A18U U72C A75G, 0.38; with G8A A13U U69C U76C, 0.38.
For G7U G46U A64G the value was 0.06.
For G8A A35G U54C A64U A75G the value was 0.09.
Take G7U A18U A21G A45U U60C: the self-cleavage amounted to 0.16.
With G8A G10A U25C A64G the figure was 0.17; with G7U U41A A47U, 0.17.
Regarding G7U G46U U54C A56G U72A, the self-cleavage worked out at 0.08.
With G7U G19C A21G U60C U67A the figure was 0.1; with G8A A45U G63A A64U, 0.06; with G7U A15G U66C, 0.1.
For G7C U58C U66C the value was 0.05; for G8A C17U A28G C38U G70A U76C, 0.03.
For G7U C59A U80C the value was 0.2; for G8A A28G G30A G33U, 0.07; for G8A C11U A56U A57G U67C, 0.07.
On to G7C G55U U72C, for which the self-cleavage is 0.31.
Take G8A A15G G30C A65G: the self-cleavage worked out at 0.38.
With G8A A18G A28G U41C U80A the figure was 0.06; with G8A A15U U48C A65G, 0.08.
For G7U A20G G30C the value was 0.39.
For G8A G24A G52A the value was 0.2.
Turning to G7U A28G U58C, the self-cleavage is 0.39.
G7U A28G U78C: the self-cleavage stood at 0.08.
With G8A A20G A56G the figure was 0.21; with G8A C29U U41C U69C U74C, 0.04.
Regarding G8A A21G U31A, the self-cleavage was determined as 0.09.
For G8A A28U U48G U51A U60A A64U the value was 0.12.
With G7U A13G C17G U41C the figure was 0.6; with G8A A13G A20G U26A U54C U78C, 0.22; with G7U G8A A28G A45U U58C, 0.06.
With G8A G22U U78C the figure was 0.18; with G7U U60C A77U, 0.16; with G8A U25C A35U U72C U80C, 0.04.
As for G7C U54C U66G U80C, the self-cleavage amounted to 0.06.
With G8A U25C A35U A64G the figure was 0.28.
Take G7U A21G C38A G46A U67C U78C: the self-cleavage is 0.08.
In the case of G8A A13U A21G G36A U78C, the self-cleavage came out at 0.15.
For G8A U26A A64G, the self-cleavage was 0.12.
For G8A A18G U31C A57G U67C the value was 0.05.
Consider G8A U25C A28U U31C A56U A65G, for which the self-cleavage came out at 0.08.
With G8A A20G U69C U78C the figure was 0.05.
Regarding G7U A21G C39G, the self-cleavage amounted to 0.18.
With G7C G9A A13U A15U A47U U74A, the self-cleavage came to 0.36.
Turning to G8A G24C C37U U48C U67C C79U, the self-cleavage turned out to be 0.04.
For the variant G8A G42A U54A U60C, the self-cleavage is 0.06.
For G8A A20G A45G, the self-cleavage amounted to 0.29.
With G8A A35U U60C U72C U80C the figure was 0.05.
With G8A A13G U26A A28G G33U U48C the figure was 0.04; with G8A A18U U41C A47C A65U U76A U80C, 0.04; with G8A G9U U41A A45U U54C, 0.12.
For G7U U60C U72C U80A the value was 0.06; for G7U U31G C32G U43A U54C U66C, 0.06; for G7C U43C U49C U69C, 0.64.
For G8A A18G U26A A28U G36A U69A, the self-cleavage was 0.04.
Consider G8A A35G U41C, for which the self-cleavage was 0.53.
For G7U A21G U31C U41C U49C A65G the value was 0.03; for G7U A13G A21G U25C A35G, 0.03.
With G8A C12U U41A A57G C62G U74C the figure was 0.02; with G7U A35U C50A A57G U69A, 0.05.
For G8A G16A A64G U76A the value was 0.22; for G7C G24C A35G A57G U66C U78A, 0.04.
As for G7U C23U U41C U60A U67C, the self-cleavage turned out to be 0.04.
For G8A C14G A21U U74A the value was 0.05; for G7U A13C U43A A45G G73A A77U, 0.09; for G8A U25C C34U U49C U67C U74C, 0.05.
With G8A A20U U43C C44A U60C the figure was 0.05; with G8A C11U A15C A45G U80C, 0.05; with G8A A15G U76C, 0.19.
For G8A U31C U69A the value was 0.06.
As for G8A U26A U31C U69C, the self-cleavage stood at 0.06.
With G7C A28U U51C U54G the figure was 0.19.
Turning to G7U U26C U67A U80C, the self-cleavage worked out at 0.06.
With G7C C12U U26C U72A the figure was 0.05; with G8A A15G G53C G63U, 0.38.
Turning to G8A A21G C38U U60G U69C, the self-cleavage was 0.03.
With G7C U49C A57U A64G U67C, the self-cleavage worked out at 0.07.
With G8A C12A U26C U31C the figure was 0.06.
For G8A U25C U60A the value was 0.15.
Take G7U U60A A64G: the self-cleavage came out at 0.22.
For the variant G7U A35G U60C, the self-cleavage is 0.06.
For G8A G42U U72A the value was 0.06; for G7U U66C U72C, 0.14; for G8A A20G G33A A64G C68U, 0.05.
For G8A C11A C23A A45U U54A the value was 0.05; for G8A A28G U31A G33U U60A U67C A75G, 0.08.
For G7U A15G U49G U60A U76C the value was 0.15; for G7U U31A G36A, 0.07; for G8A U26C U60A G73U U76C, 0.05.
With G7C C32U G55A, the self-cleavage is 0.15.
With G7U U51C A64G the figure was 0.05; with G7U U31G U54G, 0.15; with G8A A20G A35G C40U U49C, 0.46.
With G7U U26C U31C U78C the figure was 0.19; with G8A A13U A57G, 0.07; with G7U A15U C37U U67A U78C, 0.04.
Consider G7U C12U A18G A21G A28G A64G, for which the self-cleavage amounted to 0.04.
For G7U C23U U67C the value was 0.08; for G7U A28U U41A U51A U72C, 0.06; for G7C U26C U66A, 0.18.
With G7C C17U A47U the figure was 0.41; with G8A A20U U41C A57G U76A, 0.04.
Take G8A A15U A28C U54C G63A: the self-cleavage is 0.13.
G7U C11G U41C U49A U58C: the self-cleavage was determined as 0.05.
For G8A G9A A56G C59A A64G G73C U76G, the self-cleavage turned out to be 0.03.
With G8A A28C U51C U72C the figure was 0.22; with G7U G9U C23G U25A U31G U41C, 0.04.
